# Measurements: the supplement of paper PMC8728848
# The list shows a part of the results.
# B1: Microvirin-2 (Microcystis aeruginosa) (protein)
# chain: MPNFSHTCSSINYDPDSTILSAECQARDGEWLPTELRLSDHIGNIDGELQFGDQNFQETCQDCHLEFGDGEQSVWLVCTCQTMDGEWKSTQILLDSQIDNNDSQLEIGGSMPNFSHTCSSINYDPDSTILSAECQARDGEWLPTELRLSDHIGNIDGELQFGDQNFQETCQDCHLEFGDGEQSVWLVCTCQTMDGEWKSTQILLDSQIDNNDSQLEIG
# Tests used:
# Experiment in all cases: glycan array binding signal (z-score within array); higher = stronger binding
# Conditions in all cases: glycan notation: IUPAC condensed, linker removed
# [1] = molecular target: Neu5Ac(a2-6)GlcNAc(b1-4)GlcNAc(b1-4)GlcNAc
# Summary of the method: (§1)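 Glycan array data were curated from 3228 arrays in the Consortium for Functional Glycomics database and kept only where the protein sequence was available. Glycan names were converted to IUPAC-condensed notation, and columns mapping to the same glycan were averaged. The binding signal is a within-array Z-score, averaged across arrays of the same protein sequence at different concentrations or buffers and across linkers. Negative Z-scores can be read as non-binding.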
# [2] = molecular target: Neu5Ac(a2-8)Neu5Ac
# Summary of the method: as §1
# [3] = molecular target: Neu5Ac(a2-8)Neu5Ac(a2-3)Gal(b1-3)GalNAc(b1-4)[Neu5Ac(a2-3)]Gal(b1-4)Glc
# Summary of the method: as §1
# [4] = molecular target: Neu5Ac(a2-8)Neu5Ac(a2-3)Gal(b1-3)GalNAc(b1-4)[Neu5Ac(a2-8)Neu5Ac(a2-3)]Gal(b1-4)Glc
# Summary of the method: as §1
# [5] = molecular target: Neu5Ac(a2-8)Neu5Ac(a2-3)Gal(b1-4)Glc
# Summary of the method: as §1
# [6] = molecular target: Neu5Ac(a2-8)Neu5Ac(a2-3)Gal(b1-4)GlcNAc
# Summary of the method: as §1
# [7] = molecular target: Neu5Ac(a2-8)Neu5Ac(a2-3)[Gal(b1-3)GalNAc(b1-4)]Gal(b1-4)Glc
# Summary of the method: as §1
# [8] = molecular target: Neu5Ac(a2-8)Neu5Ac(a2-3)[GalNAc(b1-4)]Gal(b1-4)Glc
# Summary of the method: as §1
# [9] = molecular target: Neu5Ac(a2-8)Neu5Ac(a2-8)Neu5Ac
# Summary of the method: as §1
# [10] = molecular target: Neu5Ac(a2-8)Neu5Ac(a2-8)Neu5Ac(a2-3)Gal(b1-4)Glc
# Summary of the method: as §1
# [11] = molecular target: Neu5Ac(a2-8)Neu5Ac(a2-8)Neu5Ac(a2-3)[Gal(b1-3)GalNAc(b1-4)]Gal(b1-4)Glc
# Summary of the method: as §1
# [12] = molecular target: Neu5Ac(a2-8)Neu5Ac(a2-8)Neu5Ac(a2-3)[GalNAc(b1-4)]Gal(b1-4)Glc
# Summary of the method: as §1
# [13] = molecular target: Neu5Ac(a2-8)Neu5Ac(a2-8)Neu5Ac(a2-8)Neu5Ac(a2-3)[GalNAc(b1-4)]Gal(b1-4)Glc
# Summary of the method: as §1
# [14] = molecular target: Neu5Ac(a2-8)Neu5Gc(a2-3)Gal(b1-4)GlcNAc
# Summary of the method: as §1
# [15] = molecular target: Neu5Ac(b2-6)Gal(b1-4)GlcNAc
# Summary of the method: as §1
# [16] = molecular target: Neu5Ac(b2-6)GalNAc
# Summary of the method: as §1
# [17] = molecular target: Neu5Ac9Ac(a2-3)Gal(b1-4)GlcNAc
# Summary of the method: as §1
# [18] = molecular target: Neu5Ac9Ac(a2-6)Gal(b1-4)GlcNAc
# Summary of the method: as §1
# [19] = molecular target: Neu5Gc(a2-3)Gal(b1-3)GlcNAc
# Summary of the method: as §1
# [20] = molecular target: Neu5Gc(a2-3)Gal(b1-3)[Fuc(a1-4)]GlcNAc
# Summary of the method: as §1
# [21] = molecular target: Neu5Gc(a2-3)Gal(b1-4)Glc
# Summary of the method: as §1
# [22] = molecular target: Neu5Gc(a2-3)Gal(b1-4)GlcNAc
# Summary of the method: as §1
# [23] = molecular target: Neu5Gc(a2-3)Gal(b1-4)GlcNAc(b1-3)Gal(b1-4)GlcNAc(b1-2)Man(a1-3)[Neu5Gc(a2-3)Gal(b1-4)GlcNAc(b1-3)Gal(b1-4)GlcNAc(b1-2)Man(a1-6)]Man(b1-4)GlcNAc(b1-4)GlcNAc
# Summary of the method: as §1
# [24] = molecular target: Neu5Gc(a2-3)Gal(b1-4)[Fuc(a1-3)]GlcNAc
# Summary of the method: as §1
# [25] = molecular target: Neu5Gc(a2-6)Gal(b1-4)GlcNAc
# Summary of the method: as §1
# [26] = molecular target: Neu5Gc(a2-6)GalNAc
# Summary of the method: as §1
# [27] = molecular target: Neu5Gc(a2-8)Neu5Ac(a2-3)Gal(b1-4)GlcNAc
# Summary of the method: as §1
# [28] = molecular target: Neu5Gc(a2-8)Neu5Gc(a2-3)Gal(b1-4)GlcNAc
# Summary of the method: as §1
# [29] = molecular target: Neu5Gc(a2-8)Neu5Gc(a2-3)Gal(b1-4)GlcNAc(b1-3)Gal(b1-4)GlcNAc
# Summary of the method: as §1
# [30] = molecular target: Neu5Gc(a2-8)Neu5Gc(a2-6)Gal(b1-4)GlcNAc
# Summary of the method: as §1
# [31] = molecular target: Neu5Gc(b2-6)Gal(b1-4)GlcNAc
# Summary of the method: as §1
binder,measurement,setting,value
B1,glycan array binding signal (z-score),[1],-0.139
same,glycan array binding signal (z-score),[2],-0.134
same,glycan array binding signal (z-score),[3],-0.143
same,glycan array binding signal (z-score),[4],-0.131
same,glycan array binding signal (z-score),[5],-0.14
same,glycan array binding signal (z-score),[6],-0.139
same,glycan array binding signal (z-score),[7],-0.138
same,glycan array binding signal (z-score),[8],-0.137
same,glycan array binding signal (z-score),[9],-0.137
same,glycan array binding signal (z-score),[10],-0.139
same,glycan array binding signal (z-score),[11],-0.132
same,glycan array binding signal (z-score),[12],-0.141
same,glycan array binding signal (z-score),[13],-0.13
same,glycan array binding signal (z-score),[14],-0.141
same,glycan array binding signal (z-score),[15],-0.141
same,glycan array binding signal (z-score),[16],-0.138
same,glycan array binding signal (z-score),[17],-0.119
same,glycan array binding signal (z-score),[18],-0.146
same,glycan array binding signal (z-score),[19],-0.115
same,glycan array binding signal (z-score),[20],-0.137
same,glycan array binding signal (z-score),[21],-0.12
same,glycan array binding signal (z-score),[22],-0.123
same,glycan array binding signal (z-score),[23],-0.12
same,glycan array binding signal (z-score),[24],-0.125
same,glycan array binding signal (z-score),[25],-0.127
same,glycan array binding signal (z-score),[26],-0.133
same,glycan array binding signal (z-score),[27],-0.139
same,glycan array binding signal (z-score),[28],-0.148
same,glycan array binding signal (z-score),[29],-0.133
same,glycan array binding signal (z-score),[30],-0.139
same,glycan array binding signal (z-score),[31],-0.119
